# Measured values reported in article PMC4336329 (PLoS ONE, 2015).
# The campaign covered roughly 310,000 compounds. About 2,200 (0.71%) showed an effect of 50% or more. The effect is printed as a negative number. The list shows a part of the results.
# Biological target: human ether-à-go-go-related gene (hERG) potassium channel (human, UniProt Q12809)
# Assay: primary screen, population patch clamp on CHO cells stably expressing hERG
# Chain of human ether-à-go-go-related gene (hERG) potassium channel (Q12809 whole entry, looked up): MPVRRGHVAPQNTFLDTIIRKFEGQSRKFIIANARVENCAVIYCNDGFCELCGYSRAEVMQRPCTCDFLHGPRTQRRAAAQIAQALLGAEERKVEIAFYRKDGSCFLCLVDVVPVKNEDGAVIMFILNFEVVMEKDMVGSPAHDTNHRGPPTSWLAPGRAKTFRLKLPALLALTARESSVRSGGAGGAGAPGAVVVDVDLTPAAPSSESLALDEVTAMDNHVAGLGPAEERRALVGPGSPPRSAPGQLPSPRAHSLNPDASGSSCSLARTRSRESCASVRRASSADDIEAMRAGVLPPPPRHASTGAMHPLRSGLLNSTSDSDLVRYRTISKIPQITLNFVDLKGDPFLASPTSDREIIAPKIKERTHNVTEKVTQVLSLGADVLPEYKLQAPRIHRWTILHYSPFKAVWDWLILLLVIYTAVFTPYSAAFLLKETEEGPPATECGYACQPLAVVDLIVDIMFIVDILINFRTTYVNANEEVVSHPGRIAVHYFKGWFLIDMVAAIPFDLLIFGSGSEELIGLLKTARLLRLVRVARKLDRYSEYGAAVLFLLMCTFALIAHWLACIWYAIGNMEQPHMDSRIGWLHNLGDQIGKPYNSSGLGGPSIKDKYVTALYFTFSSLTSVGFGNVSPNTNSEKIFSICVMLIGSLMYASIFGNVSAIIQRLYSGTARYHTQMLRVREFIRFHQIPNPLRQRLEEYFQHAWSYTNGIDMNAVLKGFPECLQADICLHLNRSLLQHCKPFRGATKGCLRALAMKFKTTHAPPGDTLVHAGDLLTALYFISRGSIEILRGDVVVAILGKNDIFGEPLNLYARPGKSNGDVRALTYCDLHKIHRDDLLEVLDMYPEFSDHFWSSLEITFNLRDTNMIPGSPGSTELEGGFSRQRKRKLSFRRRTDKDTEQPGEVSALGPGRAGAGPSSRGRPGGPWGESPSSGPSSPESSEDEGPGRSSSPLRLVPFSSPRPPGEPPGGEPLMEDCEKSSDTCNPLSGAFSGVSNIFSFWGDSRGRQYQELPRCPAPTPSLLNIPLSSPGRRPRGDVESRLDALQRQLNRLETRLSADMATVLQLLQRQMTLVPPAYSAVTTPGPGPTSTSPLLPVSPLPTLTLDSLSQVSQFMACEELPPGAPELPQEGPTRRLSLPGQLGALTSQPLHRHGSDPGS
row,SMILES,"hERG current change (%, negative = inhibition) at 1uM"
1,COc1cc(NS(=O)(=O)c2ccc(-c3ccc(=O)[nH]n3)o2)cc(OC)c1OC,-6.48%
2,O=C(Nc1ccccc1C(F)(F)F)C1CC(=O)N(c2ccccc2F)C1 (centres unmarked),-1.34%
3,CCOc1ccccc1OCCCC(=O)NCCc1ccc(S(N)(=O)=O)cc1,10.8%
4,Cc1cccc(NC(=O)c2ccccc2OCC(=O)N2CCCC2)c1C,11.3%
5,CCCOC(=O)c1ccc(NC(=O)C(CC)CC)cc1,7.53%
6,CCCN(CC(=O)Nc1ccccc1C)C(=O)CCl,11.5%
7,CCCCSCCCNC(=O)c1ccc(CS(=O)(=O)c2ccc(OC)cc2)o1,-5.71%
8,CC1(C)Cc2c(cnn2-c2cccc(F)c2)C(NC(=O)CCc2cnccn2)C1 (centres unmarked),5.43%
9,C[C@H](NC(=O)c1ccccc1Cl)C(=O)Nc1ccccc1F,0.909%
10,COCCn1c(SCC(=O)N(C)c2c(N)n(Cc3ccccc3)c(=O)[nH]c2=O)nnc1-c1cccc(C)c1,21.2%
11,CCOc1ccc(/C=N/NC(=O)c2cc(-c3ccco3)nc3ccccc23)cc1,4.76%
12,CC(C)c1ccccc1,9.15%
13,CN1CCSc2ccc(C(=O)NCc3cccc(Br)c3)cc21,11.7%
14,CCCn1nc(C(=O)OCC(=O)c2ccc3c(c2)NC(=O)CO3)c2ccccc2c1=O,-2.27%
15,CCCCCn1c(SCC#N)nc2cc(C(=O)NCC3CCCO3)ccc2c1=O (centres unmarked),-9.04%
16,c1ccc2sc(NC3=NCCN3)nc2c1,-4.67%
17,COc1ccc(OC)c(-c2csc(NC(=O)c3ccc(F)cc3)n2)c1,4.66%
18,CCOC(=O)N1CCC(N2CCCC(C(=O)c3ccccc3OC)C2)CC1 (centres unmarked),-59.3%
19,O=S1(=O)CCN(C(CO)c2ccccc2)CC1 (centres unmarked),12.4%
20,CCOC(=O)C1=C(c2ccccc2)OC(N)=C(C#N)C1c1ccc(Br)s1 (centres unmarked),11.8%
21,Cn1nnnc1SCC1=C(C(=O)O)N2C(=O)C(NC(=O)C3CC3c3ccccc3)C2SC1 (centres unmarked),20.1%
22,O=S(=O)(N/N=C\c1ccc(-c2ccccc2Cl)o1)c1ccccc1,2.34%

row,SMILES,"hERG current change (%, negative = inhibition) at 1uM"
1,COc1ccc(N2CCN(Cc3cc(=O)c(OCC(=O)NC4CCCC4)co3)CC2)cc1,3.94%
2,CCN(CC)c1ccc(/C=N/NC(=O)c2c(Cl)cnn2C)c(O)c1,12.7%
3,O=C(CC1NCCc2ccccc21)Nc1ccccc1Cl (centres unmarked),12.4%
4,COc1ccc(OCCC(=O)OCC(=O)NCc2ccc(F)cc2)cc1,13.7%
5,COCCCNC(=O)CCn1c(=O)c2ccccc2n(CC(=O)Nc2c(C)cccc2C)c1=O,13.7%
6,CCOC(=O)c1ccc(-n2nc(C)cc2C)cc1,3.64%
7,O=C(O)Cc1c[nH]c2ccc(O)cc12,12.6%
8,CCOC(=O)C(NC(=O)CC)(Nc1ccc(S(=O)(=O)Nc2onc(C)c2C)cc1)C(F)(F)F (centres unmarked),12.7%
9,O=C(CCl)NCCNC(=O)c1cc(OCC(F)(F)F)ccc1OCC(F)(F)F,-0.848%
10,COCCN(CCOC)S(=O)(=O)c1ccc(C(=O)Nc2nc(-c3ccncc3)cs2)cc1,3.68%
11,Cc1ccc(OCC(=O)Nc2cc(NC(=O)COc3ccc(C)c(C)c3)cc(C(=O)O)c2)cc1C,14.2%
12,CSC1=C(C#N)C(=O)NC(c2ccc(Cl)cc2)S1 (centres unmarked),12.9%
13,CCOc1ccc(S(=O)(=O)NCCCN2CCCC2=O)cc1,14.3%
14,O=C(CSc1nnc(NC(=O)C2CCC2)s1)Nc1ccccc1Br,2.61%
15,CCOc1ccc(/C=C2/SC(=S)N(n3c(C)ccc3C)C2=O)cc1,10.1%
16,CC(NC(=O)Nc1nnc(C(F)(F)F)s1)(C(F)(F)F)C(F)(F)F,0.76%
17,S=c1[nH]c2cc(Br)cnc2[nH]1,18.2%
18,CCc1cc(CC)c(/C=N/NC(N)=O)c(CC)c1/C=N/NC(N)=O,14.3%
19,CC(C)CN1CCN(Cc2cccc3nccnc23)CC1CCO (centres unmarked),3.17%
20,O=C(O)c1nn(-c2cccc(C(F)(F)F)c2)ccc1=O,15.1%
21,O=C(c1ccc(Cl)s1)N1CCOCC1,14.1%
22,CCOCc1[nH]c(=S)[nH]c(=O)c1Cc1ccc(OC(C)C)cc1,0.356%
